Biological target: T1, BMP-9 monomer (cysteinylated BMP-9 growth factor) (human, UniProt Q9UK05 320-429, A321S, Cys-392 cysteinylated (cysteine attached by a disulfide, +119 Da))
T1 construct: Human BMP-9 growth factor released by factor Xa from Pro-(X)-BMP-9 (proBMP9 residues 23-429, A321S, furin site RRKR replaced by IEGR); Monomer without the interchain disulfide; crystallises as a non-covalent dimer; also called purified BMP-9 monomer; Cysteinylated BMP-9 WT Monomer; source: expi293 (suspension HEK293), secreted as Pro-(X)-BMP-9; IMAC, factor Xa digestion, C18 reverse phase
T1 sequence (looked up): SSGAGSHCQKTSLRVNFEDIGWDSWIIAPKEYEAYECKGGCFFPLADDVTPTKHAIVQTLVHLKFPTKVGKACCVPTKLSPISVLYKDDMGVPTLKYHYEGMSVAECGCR
Experiment: SEC-MALS; BMP-9 monomer injected at 6.58 μM as 1:1.6 BMP-9M:ActRIIa; Superdex 75 Increase 10/300 GL; 150 mM NaCl, 100 mM Tris pH 7.5; monomer to non-covalent dimer
Settings: both partners purified

binding result: binds
B1: ActRIIa extracellular domain (human activin receptor type-2A […]) (receptor)
chain: not shown
notes: Human activin receptor type-2A, […]; Deglycosylated with PNGase F; also called ActRIla; source: expi293 (suspension HEK293), secreted; nickel column, PNGase F deglycosylation, SEC (Superdex 75)
